Where a name gives a salt, the structure may show the parent alone. The list shows a part of the results. Most values come without repeats; read them as rough. Starred links: 1 amine or outer side, 2 acyl side, 3 side chain; linkers in the order of their positions; H or OH if unused. Positions of bridges follow the written chain, without caps; N, C: chain ends. Non-standard residues stand in square brackets, D forms with d. Residues, ends and D or L forms follow the SMILES beside them. ξ: configuration not given here. *: point of attachment. X1 = N=C1NCCC([C@H](N[*:1])C(=O)[*:2])N1; ΔAla(Z-3-ureido) = NC(=O)N/C=C(\N)C(=O)O; ξβ3hOrn = NCCCC(N)CC(=O)*; Dap = NC[C@H](N)C(=O)O
Tested on: Beas-2B AQP5-HiBiT reporter cells
Test: AQP5-HiBiT luminescence relative to vehicle (ratio to vehicle); higher = higher AQP5-HiBiT protein abundance
Settings: 10 µM; 18 h
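Also: monoclonal Beas-2B line stably carrying CMV promoter-driven AQP5-HiBiT, 5,000 cells per well in 384-well plates, lytic HiBiT plus LgBiT NanoLuc luminescence, FDA-approved drug library screen.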

| SMILES | AQP5-HiBiT luminescence |
| --- | --- |
| C[C@@H]1C/C=C/C=C/C=C/C=C/[C@H](O[C@@H]2O[C@H](C)[C@@H](O)[C@H](N)[C@@H]2O)C[C@@H]2O[C@](O)(C[C@@H](O)C[C@H]3O[C@@H]3/C=C/C(=O)O1)C[C@H](O)[C@H]2C(=O)O [Pimaricin] | 0.794 |
| CCN(CC)C(=O)Nc1ccc(OCC(O)CNC(C)(C)C)c(C(C)=O)c1 (stereo unspecified) [Celiprolol hydrochloride] | 0.595 |
| CN1C(C(=O)Nc2ccccn2)=C(O)c2ccccc2S1(=O)=O [Piroxicam] | 0.684 |
| CN(C)CCC=C1c2ccccc2COc2ccccc21 [Doxepin hydrochloride] | 1.57 |
| C[C@]12CC[C@@H]3c4ccc(OS(=O)(=O)O)cc4CC[C@H]3[C@@H]1CCC2=O [Estropipate] | 0.739 |
| S=P(N1CC1)(N1CC1)N1CC1 [Triethylenethiophosphoramide] | 1.02 |
| CC(=O)OCC(CCn1cnc2cnc(N)nc21)COC(C)=O [Famciclovir] | 0.845 |
| C#CC1(O)CC[C@H]2[C@@H]3CCC4=CC(=O)CC[C@@H]4[C@H]3CC[C@@]21CC (stereo partly specified) [Norgestrel] | 0.935 |
| CCCCCN(C)CCC(O)(P(=O)(O)O)P(=O)(O)O [Ibandronic acid] | 0.987 |
| CCNC(=O)CCC/C=C\C[C@@H]1[C@@H](/C=C/[C@@H](O)CCc2ccccc2)[C@H](O)C[C@@H]1O [Bimatoprost] | 0.632 |
| CCOc1cc([C@@H](CS(C)(=O)=O)N2C(=O)c3cccc(NC(C)=O)c3C2=O)ccc1OC | 0.561 |
| Cc1cc(C#N)cc(C)c1Oc1nc(Nc2ccc(C#N)cc2)nc(N)c1Br [Etravirine (TMC125)] | 0.885 |
| c1ccc(Cc2nc3ccccc3[nH]2)cc1 [Bendazol] | 1.26 |
| Cc1cccc(C)c1OCC(C)N (stereo unspecified) [Mexiletine hydrochloride] | 0.684 |
| CC12CC3CC(C)(C1)CC(N)(C3)C2 [Memantine hydrochloride] | 1.17 |
| O=C(O)CCCc1ccccc1 [Sodium Phenylbutyrate] | 1.04 |

| SMILES | AQP5-HiBiT luminescence |
| --- | --- |
| CC(=O)O[C@H]1C[C@@H]2CC[C@@H]3[C@H](CC[C@@]4(C)[C@H]3C[C@H]([N+]3(C)CCCCC3)[C@@H]4OC(C)=O)[C@@]2(C)C[C@@H]1N1CCCCC1 [Vecuronium bromide] | 1.07 |
| CCCC(=O)OCOC(=O)C1=C(C)NC(C)=C(C(=O)OC)C1c1cccc(Cl)c1Cl (stereo unspecified) [Clevidipine butyrate] | 0.775 |
| CCC(Cc1c(I)cc(I)c(N)c1I)C(=O)O (stereo unspecified) [Iopanoic acid] | 1 |
| C[C@@H]1NC(=O)[C@@H](N)CNC(=O)[C@H](C2CCNC(=N)N2)NC(=O)/C(=C/NC(N)=O)NC(=O)[C@H](CNC(=O)CC(N)CCCN)NC1=O.N=C1NCCC([C@@H]2NC(=O)/C(=C/NC(N)=O)NC(=O)[C@H](CNC(=O)CC(N)CCCN)NC(=O)[C@H](CO)NC(=O)[C@@H](N)CNC2=O)N1 (stereo partly drawn) [Capastat sulfate] (H-[Dap]S[Dap](ξβ3hOrn)[ΔAla(Z-3-ureido)][X1]; lactam 1-C) | 0.763 |
| COCC(=O)Nc1c(I)c(C(=O)NCC(O)CO)c(I)c(C(=O)N(C)CC(O)CO)c1I (stereo unspecified) [Iopromide] | 0.7 |
| CC1(C)S[C@@H]2[C@H](NC(=O)[C@H](N)c3ccccc3)C(=O)N2[C@H]1C(=O)O [Ampicillin] | 0.854 |
| COc1ccc(CC(C)NCC(O)c2ccc(O)c(NC=O)c2)cc1 (stereo unspecified) [Formoterol Hemifumarate] | 0.936 |
| CN(C)CCOC(c1ccccc1)c1ccccc1 [Diphenhydramine hydrochloride] | 0.854 |
| CCCCOc1ccc(C(=O)CCN2CCCCC2)cc1 [Dyclonine hydrochloride] | 1.99 |
| Clc1ccc(CO/N=C(\Cn2ccnc2)c2ccc(Cl)cc2Cl)c(Cl)c1 [Oxiconazole nitrate] | 0.802 |
| CCC[C@H](N[C@@H](C)C(=O)N1[C@H](C(=O)O)C[C@@H]2CCCC[C@@H]21)C(=O)OCC [Perindopril erbumine] | 1.24 |
| CNCC[C@H](Oc1cccc2ccccc12)c1cccs1 [Duloxetine hydrochloride] | 1.12 |
| Cc1c(OCC(F)(F)F)ccnc1C[S+]([O-])c1nc2ccccc2[nH]1 (stereo unspecified) [Lansoprazole] | 0.942 |
| CC(CN(C)C)CN1c2ccccc2CCc2ccccc21 (stereo unspecified) [Trimipramine maleate] | 1.21 |
| CCC1(c2ccccc2)C(=O)NCNC1=O [Primidone] | 1.13 |

From the supplement of paper PMC8821664
